Measured values taken from the supplement of paper PMC10670038.
Where a name gives a salt, the structure may show the parent alone. ± gives the standard deviation of the averaged measurements. The full ranking holds about 2,000 compounds; the median of “relative cell viability vs DMSO, compound + 0.2 uM CuET” is about 1, and the lowest 2% start at about 0.25. Some of the results follow.

What follows are compounds tested on TE10 (assay: relative cell viability vs DMSO, compound + 0.2 uM CuET (fraction); TE10 is an esophageal squamous carcinoma line; higher = less cytotoxic). Details: 2 µM; co-treatment: CuET (bis(diethyldithiocarbamate)copper) 0.2 uM; 48 h.
Procedure: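 TE10 ESCC cells (1,000/well, 384-well plates) were treated with Selleck bioactive library compounds at 2 uM combined with 0.2 uM CuET (copper diethyldithiocarbamate) for 48 h. Viability was read by CellTiter-Glo and expressed relative to DMSO wells. Two technical replicates (A, B).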
In the case of O=c1ncn2nc(Sc3ccc(F)cc3F)ccc2c1-c1c(Cl)cccc1Cl, the relative cell viability is reported as 1.31 ± 0.042. Compound C[C@]12C=CC(=O)C=C1CC[C@@H]1[C@@H]2[C@@H](O)C[C@@]2(C)[C@H]1CC[C@]2(O)C(=O)CO [Prednisolone] has a relative cell viability of 1.02 ± 0.044. O=c1[nH]cc(F)c(=O)[nH]1 [Fluorouracil (5-Fluoracil, 5-FU)] showed a relative cell viability of 1.23 ± 0.11. CS(=O)(=O)c1ccc([C@@H](O)[C@@H](CO)NC(=O)C(Cl)Cl)cc1 [Thiamphenicol] showed a relative cell viability of 1.33 ± 0.038. With Cc1cncc(CN2CCC(=C3c4ccc(Cl)cc4CCc4cccnc43)CC2)c1 [Rupatadine Fumarate] the relative cell viability was 1.08 ± 0.18. In the case of CC(=O)Oc1cc(C(F)(F)F)ccc1C(=O)O [Triflusal], the relative cell viability is reported as 1.08 ± 0.12. CNC(=O)c1ccc2cc([C@@]3(O)CCn4cncc43)ccc2c1 [TAK-700 (Orteronel)] was tested, and the relative cell viability was 1.13 ± 0.14. In the case of N=c1ccn2c(n1)O[C@H]1[C@H](O)[C@@H](CO)O[C@H]12 [Cyclocytidine HCl], the relative cell viability is reported as 1.02 ± 0.042. Compound CN(C)CCCNC(=O)c1ccc(-c2cc(O)c3ncccc3c2)cc1 has a relative cell viability of 0.838 ± 0.11. In the case of C[C@@H]1CC(=O)NN=C1c1ccc(NN=C(C#N)C#N)cc1 [Levosimendan], the relative cell viability is reported as 1.05 ± 0.059. Compound C[C@@H](c1ncncc1F)[C@](O)(Cn1cncn1)c1ccc(F)cc1F [Voriconazole] has a relative cell viability of 1.17 ± 0.083. O=C(O)Cc1ccccc1Nc1c(Cl)cccc1Cl [Diclofenac Diethylamine] showed a relative cell viability of 1.26 ± 0.18. In the case of O=C(O)Cc1ccccc1Nc1c(Cl)cccc1Cl [Diclofenac Sodium], the relative cell viability is reported as 1.098 ± 0.0064. O=C(O)Cc1ccccc1Nc1c(Cl)cccc1Cl [Diclofenac Potassium] showed a relative cell viability of 1.13 ± 0.06. With Cc1c(NC(=O)c2ccc(C(C)(C)C)cc2)cccc1-c1cn(C)c(=O)c(Nc2ccc(C(=O)N3CCOCC3)cc2)n1 the relative cell viability was 1.04 ± 0.046. For NC(=O)c1noc([C@H](CCCC2CCCCC2)CC(=O)NO)n1, the relative cell viability was 0.967 ± 0.089. CN1CCN(CCCNc2ncc(Cl)c(-c3cc4c(C(=O)NC5CC5)cccc4s3)n2)CC1 was tested, and the relative cell viability was 1.054 ± 0.0075. For CC[C@@]1(O)C(=O)OCc2c1cc1n(c2=O)Cc2cc3cc(O)ccc3nc2-1 [(S)-10-Hydroxycamptothecin], the relative cell viability was 0.467 ± 0.013. Cc1cccc(-c2[nH]c(C(C)(C)C)nc2-c2ccc3nccnc3c2)n1 was tested, and the relative cell viability was 0.962 ± 0.014. Compound NC1(c2ccc(-c3nc4ccn5c(=O)[nH]nc5c4cc3-c3ccccc3)cc2)CCC1 has a relative cell viability of 0.884 ± 0.087. Compound Cc1cnc(Nc2ccc(N3CCN(C)CC3)cc2)nc1Nc1cccc(S(=O)(=O)NC(C)(C)C)c1 has a relative cell viability of 0.857 ± 0.15. CC(C)CCN1c2nc(Nc3cc(F)c(O)c(F)c3)ncc2N(C)C(=O)C1C (stereo not drawn) gave a relative cell viability of 0.989 ± 0.16. O=C1NC(=O)/C(=C/c2ccc(-c3ccc(F)cc3O)o2)S1 was tested, and the relative cell viability was 0.905 ± 0.043. Compound CCn1c(=O)c(-c2ccc(-c3cncs3)cc2Cl)cc2cnc(Nc3ccc(N4CCN(C)CC4)cc3)nc21 has a relative cell viability of 0.183 ± 0.025. For CNC1CCC(N(Cc2cccc(-c3ccncc3)c2)C(=O)c2sc3ccccc3c2Cl)CC1 (stereo not drawn) [Smoothened Agonist (SAG) HCl], the relative cell viability was 1.15 ± 0.016. For CCCC(C)NC(=O)c1ccc(Cl)c(Cl)c1 (stereo not drawn), the relative cell viability was 1.4 ± 0.089. Work on Nc1ccc(S(=O)(=O)Nc2ncccn2)cc1 [Sulfadiazine] yielded a relative cell viability of 1.03 ± 0.045. In the case of C#C[C@]1(OC(C)=O)CC[C@H]2[C@@H]3CCC4=C[C@@H](OC(C)=O)CC[C@@H]4[C@H]3CC[C@@]21C [Ethynodiol diacetate], the relative cell viability is reported as 1 ± 0.018. For CC(C)[C@H](C(=O)Nc1ccc(C(=O)NO)cc1)c1ccccc1, the relative cell viability was 0.178 ± 0.0071. Compound C#C[C@]1(O)CC[C@H]2[C@@H]3CCC4=CC(=O)CC[C@@H]4[C@H]3CC[C@@]21C [Norethindrone] has a relative cell viability of 1.13 ± 0.1. In the case of CCOc1cn(-c2ccc(F)cc2C)nc1C(=O)Nc1ccc(Oc2ccnc3cc(OC)c(OC)cc23)c(F)c1, the relative cell viability is reported as 0.939 ± 0.14. Compound C=CCc1cc(OC)c(O)c(C(=O)NCCO)c1 [Alibendol] has a relative cell viability of 0.884 ± 0.023. COc1cc(N2CCN(C)CC2)ccc1Nc1nccc(-c2cn(C)c3cnccc23)n1 was tested, and the relative cell viability was 1.01 ± 0.16. For COc1cc2c(cc1O)CC[C@@H]1[C@@H]2CC[C@]2(C)[C@@H](O)CC[C@@H]12 [2-Methoxyestradiol (2-MeOE2)], the relative cell viability was 0.511 ± 0.24. Work on CC(C)NC[C@H](O)COc1ccc(CCOCC2CC2)cc1 [Levobetaxolol HCl] yielded a relative cell viability of 0.929 ± 0.046. COC(=O)C1=C(C)NC(C)=C(C(=O)OC)C1c1ccccc1[N+](=O)[O-] [Nifedipine] showed a relative cell viability of 0.827 ± 0.066. NC(=O)c1cccc2[nH]c(-c3ccc(C4CCCN4)cc3F)nc12 (stereo not drawn) gave a relative cell viability of 1.05 ± 0.046. In the case of O=C(O)CSc1cc(NS(=O)(=O)c2ccc(Br)cc2)c2ccccc2c1O, the relative cell viability is reported as 0.979 ± 0.11. For COC(=O)N1CCN(Cc2cccc(NC(=O)Nc3ccc(C)nc3)c2F)CC1, the relative cell viability was 1.22 ± 0.039. Compound CN(C)CCCN1c2ccccc2CCc2ccc(Cl)cc21 [Clomipramine HCl] has a relative cell viability of 0.995 ± 0.044. Compound Nc1ccc(O)c(C(=O)O)c1 [Mesalamine] has a relative cell viability of 1.089 ± 0.0055. With CC[C@H]1OC(=O)[C@H](C)[C@@H](O[C@H]2C[C@@](C)(OC)[C@@H](O)[C@H](C)O2)[C@H](C)[C@@H](O[C@@H]2O[C@H](C)C[C@H](N(C)C)[C@H]2O)[C@](C)(O)C[C@@H](C)C(=O)[C@H](C)[C@@H](O)[C@]1(C)O [Erythromycin] the relative cell viability was 1.03 ± 0.022. With O=C1c2ccccc2C(=O)C1c1ccccc1 [Phenindione] the relative cell viability was 0.986 ± 0.032. Compound O=C(c1cc(Cc2n[nH]c(=O)c3ccccc23)ccc1F)N1CCN(C(=O)C2CC2)CC1 has a relative cell viability of 1.32 ± 0.043. With O=C(O)CCCc1c[nH]c2ccccc12 [3-Indolebutyric acid (IBA)] the relative cell viability was 1.12 ± 0.072. O=C(O)CCc1nc(-c2ccccc2)c(-c2ccccc2)o1 [Oxaprozin] gave a relative cell viability of 1.19 ± 0.18. CC(C)(Oc1ccc(CCNC(=O)c2ccc(Cl)cc2)cc1)C(=O)O [Bezafibrate] gave a relative cell viability of 1.18 ± 0.057. c1ccc(CC2=NCCN2)cc1 [Tolazoline HCl] gave a relative cell viability of 1.23 ± 0.026. With CCc1ccc(CCOc2ccc(CC3SC(=O)NC3=O)cc2)nc1 (stereo not drawn) [Pioglitazone HCl] the relative cell viability was 1.01 ± 0.085. For CCc1ccc(CCOc2ccc(CC3SC(=O)NC3=O)cc2)nc1 (stereo not drawn) [Pioglitazone], the relative cell viability was 1.01 ± 0.11. Cc1ccc(S(=O)(=O)C=CC#N)cc1 showed a relative cell viability of 0.101 ± 0.0039. With CNC[C@@H](O)c1ccc(O)c(O)c1 [L-Adrenaline] the relative cell viability was 0.8493 ± 0.0035. Cc1ccc(N(CC2=NCCN2)c2cccc(O)c2)cc1 [Phentolamine Mesylate] gave a relative cell viability of 0.943 ± 0.084.
